Test results: PubChem BioAssay AID1508642 (National Center for Advancing Translational Sciences (NCATS), 2021)
Among all 43,000 compounds or so, about 200 (0.47%) were called active. About 12% were inconclusive and are not listed. The call rests on the fitted dose curve; in most records, active means well fitted cell-killing curve with a large enough effect; inconclusive means small, poorly fitted or top-dose-only effect, or effect the other way; inactive means flat fitted curve, though single readings scatter. The list shows a part of the results.

experiment: Cell viability qHTS assay in S16 Pmp22-F2sN cells; conditions: S16 Pmp22-F2sN Schwann cells viability, CellTiter-Glo, 24 h; series mostly up to 57.5 µM; activity change, negative = cytotoxicity: at the top concentration; further: nearly all actives have a fitted effect of over 65% in size
How it was run: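 S16 Pmp22-F2sN Schwann cells (500-1,000/well) in phenol-red-free DMEM with 10% FBS received 23 nL compound by pin tool for 24 h at 37 °C. Viability was then read as CellTiter-Glo luminescence after 15 min at room temperature.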
On the % scale 0 is the no-effect control and ±100 the full control effect.

| SMILES | activity change, negative = cytotoxicity |
| --- | --- |
| CCOc1cc(C)c(C(C)C)cc1S(=O)(=O)n1ccnc1CC | inactive: -12.8% |
| CCOc1ccc(NC(=O)C2CCN(S(=O)(=O)c3ccc4c(c3)oc(=O)n4C)CC2)cc1 | inactive: 3.71% |
| CCOc1ccc2nc(N3CCC(C(=O)Nc4ccc(Br)cc4F)CC3)sc2c1 | inactive: -23.2% |
| O=C(CSc1nnc(-c2ccncc2)n1-c1ccccc1)Nc1ccc(Br)cc1 | inactive: 3.68% |
| Cc1ccccc1OCC(=O)Nc1c(C)ccc2nsnc12 | inactive: -15.7% |
| CC(C)c1ccc(S(=O)(=O)c2nnn3c2nc(N2CCOCC2)c2sccc23)cc1 | inactive: -6.32% |
| CC1CCN(S(=O)(=O)c2ccc3c(ccn3CC(=O)NCc3ccc(N(C)C)cc3)c2)CC1 | inactive: -20.1% |
| Cc1ccc(NC(=O)C2CCN(C(=O)c3cnn(-c4ccccc4)c3-n3cccc3)CC2)cc1 | inactive: -9.68% |
| CCOC(=O)N1CCc2c(sc3c2c(=O)n(-c2ccc(CC)cc2)c(=O)n3CC(=O)c2ccccc2)C1 | inactive: -20% |
| COc1ccc(CCC(=O)NCc2nc3cccnc3n2Cc2cccc(OC)c2)cc1 | inactive: 9.36% |
| COc1ccc(Cl)cc1NC(=O)Cn1nc(C(F)(F)F)c2c1CCC2 | inactive: 25.6% |
| CCCCc1nn2c(=O)cc(COC(=O)C(C)Oc3ccccc3)nc2s1 (stereo unspecified) | inactive: 7.1% |
| CC(NC(=O)c1ccc(CSc2nc3ccncc3n2Cc2ccc(F)cc2)cc1)c1ccccc1 (stereo unspecified) | inactive: -29.3% |
| Cc1cccc(OCCCSc2nc(-c3ccc(C(C)(C)C)cc3)nc3cc(=O)[nH]n23)c1C | inactive: 1.1% |
| COCCNC(=O)c1ccc2c(c1)N(Cc1ccc(C(F)(F)F)cc1)C(=O)c1ccccc1S2 | inactive: -1.55% |
| CCCCCn1c(=O)[nH]c2cc(C(=O)NCc3ccc(F)cc3)ccc2c1=O | inactive: 8.82% |
| Cc1cccc(-n2c(=O)c3c(c4cc(C)ccc4n3C)n(CC(=O)Nc3ccccc3Cl)c2=O)c1 | inactive: 3.98% |
| Cc1cc(Br)ccc1NC(=O)c1coc(=O)c2ccccc12 | inactive: 4.45% |
| CC(C)c1ccccc1NC(=O)CSc1nnc(COc2ccccc2)o1 | inactive: 23.6% |
| Cc1ccc(CNC(=O)CN(C)S(=O)(=O)c2ccc(Br)s2)cc1 | inactive: -5.31% |
| Cc1oc2ncn(CC(C)C)c(=O)c2c1C(=O)Nc1cccc(C(F)(F)F)c1 | inactive: -1.64% |
| O=C(Nc1ccc(Cl)c(Cl)c1)c1cc(S(=O)(=O)N2CCN(c3cccc(Cl)c3)CC2)ccc1F | inactive: -0.636% |
| COc1ccc(-c2cn(-c3ccc(C)cc3)c(S(=O)(=O)CC(=O)Nc3ccccc3)n2)cc1 | inactive: -17.9% |
| CCOc1ccccc1CNC(=O)CCCN1C(=O)COc2ccc(C)cc21 | inactive: -13.8% |
| CCCOc1ccc(C(=O)NCC(c2ccc(OC)cc2)N2CCCCC2)cc1 (stereo unspecified) | inactive: 11.6% |
| CC(C)NC(=O)Cn1ccc2cc(S(=O)(=O)N3CCCCCC3)ccc21 | inactive: -3.24% |
